Several values for one entry are separate records, joined by “and”; a condition that tells them apart may be missing. Identical values can stand only once. The full ranking holds about 110,000 compounds; the median of “z-score” is about -0.1, and the highest 2% start at about 2. This is one part of the list. Activity calls are given as the source filed them.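 Rule for the calls: active = z-score in the third read window above 3 or below -3; inactive = the rest.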

This assay concerns the target Metabotropic glutamate receptor 8 (Rattus norvegicus) (UniProt P70579). As to the kind of experiment: rat mGluR8 modulators via GIRK flux, primary screen, cell-based, thallium flux, HTS (AID 488969). The following applies: HEK293 rat mGluR8, GIRK (G protein-gated inwardly rectifying potassium channel) thallium flux, FluoZin2; at 10 µM; stronger effect = higher value; submaximal glutamate (EC20) added with thallium.
UniProt P70579, sequence (P70579 whole entry, looked up): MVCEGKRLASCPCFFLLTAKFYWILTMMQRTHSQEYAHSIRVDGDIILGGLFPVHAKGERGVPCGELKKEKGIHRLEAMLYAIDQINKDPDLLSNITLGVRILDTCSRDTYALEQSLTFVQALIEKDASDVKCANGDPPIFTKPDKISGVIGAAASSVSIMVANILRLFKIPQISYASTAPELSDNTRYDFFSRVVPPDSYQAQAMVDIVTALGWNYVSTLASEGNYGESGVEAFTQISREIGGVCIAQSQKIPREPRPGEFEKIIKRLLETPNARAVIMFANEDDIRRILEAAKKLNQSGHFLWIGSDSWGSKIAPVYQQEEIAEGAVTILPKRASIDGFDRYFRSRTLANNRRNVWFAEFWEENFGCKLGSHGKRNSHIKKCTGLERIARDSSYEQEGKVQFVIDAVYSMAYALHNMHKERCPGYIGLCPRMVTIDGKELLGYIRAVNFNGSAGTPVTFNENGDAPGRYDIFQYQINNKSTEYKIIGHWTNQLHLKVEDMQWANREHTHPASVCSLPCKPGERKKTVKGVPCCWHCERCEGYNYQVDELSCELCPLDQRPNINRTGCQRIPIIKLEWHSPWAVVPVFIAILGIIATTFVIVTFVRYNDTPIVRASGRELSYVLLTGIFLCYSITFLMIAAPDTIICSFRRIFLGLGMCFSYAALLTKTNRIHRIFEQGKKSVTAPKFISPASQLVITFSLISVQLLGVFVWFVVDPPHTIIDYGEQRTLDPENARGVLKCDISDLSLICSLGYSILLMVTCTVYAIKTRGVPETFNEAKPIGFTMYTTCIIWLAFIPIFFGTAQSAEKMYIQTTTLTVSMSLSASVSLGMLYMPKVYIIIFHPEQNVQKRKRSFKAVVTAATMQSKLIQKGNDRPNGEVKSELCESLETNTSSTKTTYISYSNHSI
The molecule `COc1ccc(CCC(C(O)C(F)(F)F)S(=O)c2ccccc2)cc1` (stereo not given) showed a z-score of 0.411.

`COc1ccc2c(c1)CCc1sc(NC(=O)c3ccc(C)cc3)nc1-2` yielded a z-score of -0.118.

`COc1ccc(C2=C(Nc3ccc(C)cc3)c3ccccc3C2=O)cc1` came in with a z-score of 0.015.

Consider `N#CCC(=O)N/N=C/c1ccc(OS(=O)(=O)c2ccccc2)cc1`, for which the z-score was -0.241.

`C/C(CC(=O)NCCCN1CCOCC1)=N\NC(=O)COc1ccc(Cl)cc1` yielded a z-score of -0.229.

Regarding `COc1ccc(C(=O)Nc2ccc(-c3ccc(NC(=O)c4ccc(OC)cc4)c(OC)c3)cc2OC)cc1`, the z-score is -0.282.

`CCOC(=O)N1CCc2c(sc(NC(C)=O)c2C(N)=O)C1` had a z-score of -0.232.

`Nc1c(C(=O)Nc2nccs2)sc2nc(-c3cccs3)cc(C(F)(F)F)c12` registered a z-score of -0.132.

In turn, `O=C(CC(C(=O)O)N1CCOCC1)Nc1ccc(Cl)cc1` (stereo not given) gave a z-score of -0.04.

In the case of `S=c1[nH]nc(-c2ccccn2)n1/N=C/c1ccccc1`, the z-score is -0.194.

For the molecule `O=C(COC(=O)CCC1CCCC1)Nc1ccccc1Sc1ccccc1`, the z-score is -0.2.

Molecule `O=C(O)CC1S/C(=N/N=C/C=C/c2ccccc2[N+](=O)[O-])NC1=O` (stereo not given) displayed a z-score of 0.376.

In the case of `O=C(COc1ccc(F)cc1)N1c2ccccc2CCc2ccccc21`, the z-score was -0.509.

The molecule `CN(C)S(=O)(=O)N1CCN(c2ccccc2Cl)CC1` came in with a z-score of -0.243.

For `CNC(=O)C1CC(=O)N(Cc2ccc3c(c2)OCO3)C(=Nc2ccc(OC)cc2)S1` (stereo not given), the z-score amounted to 0.941.

In the case of `Cc1cc(OCC(=O)O/N=C(\N)c2ccccc2)ccc1Cl`, the z-score is -0.153.

As for `COc1cccc(C(=O)NC(=S)Nc2ccc([N+](=O)[O-])cc2C)c1`, the z-score is 1.79.

Molecule `CCn1c(=O)cc(SCC(=O)NCCN2CCN(Cc3ccccc3)CC2)c2ccccc21` returned a z-score of 1.03.

In the case of `CCC(C(=O)OC)n1cnc2c(cnn2-c2ccc(Cl)cc2)c1=O` (stereo not given), the z-score is -0.896.

In the case of `O=C(Nc1ncc([N+](=O)[O-])s1)C1CCN(S(=O)(=O)c2cnc[nH]2)CC1`, the z-score is -0.0778.

On to `Cc1cccc(C(=O)NC(=S)N2CCN(C)CC2)c1`, for which the z-score came to 0.0366.

`COc1ccc(OC)c(C2=NOC(C(=O)Nc3ccccc3SC)C2)c1` (stereo not given) had a z-score of -0.265.

On to `Cc1ccc(NC=C(S(=O)(=O)c2ccccc2)S(=O)(=O)c2ccccc2)c(C)c1`, for which the z-score is -0.184.

`CCCCCCc1cc2cc(C(=O)Nc3ccc(OC)cc3)c(=O)oc2cc1O` had a z-score of -0.208.

The molecule `CCCOP(=O)(OCCC)C(Nc1ccc(C(C)C)cc1)c1ccc([N+](=O)[O-])cc1` (stereo not given) showed a z-score of -0.13.

The molecule `Cc1cc(N/N=C/c2ccccc2O)nc(-c2ccccc2O)n1` yielded a z-score of -0.0434.

Take `CCOC(=O)c1c(NC(=O)CSc2nnc(CNc3ccc(Cl)cc3)o2)sc(C)c1C`: the z-score is -0.783.

Molecule `COCCCn1c(Cc2csc(Nc3ccccc3)n2)nnc1SCC(N)=O` showed a z-score of 0.239.

`COC(=O)CSc1ncnc2c1cnn2Cc1ccccc1`: the z-score was -0.981.

`O=C(Nc1ccccc1O)c1ccc(Cl)cc1` registered a z-score of -0.776.

As for `COc1ccc(CNC(=O)CSc2nc(-c3ccccc3)cc(-c3cccs3)c2C#N)cc1`, the z-score was -0.127.

The molecule `COc1ccc(C(=O)OCC(=O)NC2CC2)cc1[N+](=O)[O-]` had a z-score of -0.202.

`O=C(Nc1cccc(O)c1)c1ccccc1` displayed a z-score of 0.409.

`Cc1cc2nc(SCCOC(=O)Nc3ccc(Cl)cc3)nc(C)c2cc1C`: the z-score is -0.167.

The molecule `CC1CC2(CCCCC2)Nc2ccc3ccccc3c21` (stereo not given) yielded a z-score of 0.162.

Regarding `CC1Cc2ccccc2N1C(=O)c1ccc2c(c1)nnn2C` (stereo not given), the z-score turned out to be 0.435.

In turn, `O=C(O)CCc1c(C(=O)O)[nH]c2ccccc12` came in with a z-score of 0.441.

The molecule `CCOC(=O)C(C)Sc1nc2ccccc2c(=O)n1CC1CCCCC1` (stereo not given) showed a z-score of 1.59.

`CCS(=O)(=O)NCCCCc1ccccc1` registered a z-score of -0.235.

In turn, `Cn1nc(-c2ccccc2)c(COC(=O)c2cccc(Cl)c2)c1S(=O)(=O)c1ccccc1` returned a z-score of -0.139.

In the case of `CCOc1cc(C(=O)OCC(=O)c2c(N)n(C)c(=O)n(C)c2=O)cc(OCC)c1OCC`, the z-score is -0.112.

Molecule `O=C(NCC1CCCO1)c1cc(-c2ccc(Cl)cc2Cl)on1` (stereo not given) displayed a z-score of 0.327.

`Cc1ccc(C(=O)Nc2ccc(S(=O)(=O)N3CCc4ccccc43)cc2)o1` gave a z-score of -0.238.

For `CCOc1cc(C(=O)Nc2ccccc2N2CCN(S(C)(=O)=O)CC2)cc(OCC)c1OCC`, the z-score is -0.578.

`COCCn1c(C)cc(C(=O)CSc2ncn[nH]2)c1C` displayed a z-score of 1.14.

On to `O=C(N/N=C/c1ccc(-c2cccc([N+](=O)[O-])c2)o1)[C@H]1C[C@@H]1c1ccccc1`, for which the z-score was 0.169.

Take `COc1ccc(/C=N/Nc2nonc2N)cc1`: the z-score was -0.315.

`COc1ccc(OC)c2[nH]c(=O)c(CCNC(=O)COc3ccccc3)cc12`: the z-score was 0.555.

For `CCOc1ccc(S(=O)(=O)N(C)C)cc1-c1nc2c(C(C)(C)C)nn(C)c2c(=O)[nH]1`, the z-score is 0.117.

In turn, `CCOC(=O)c1cc(-c2ccc(C#N)cc2)nc2c1c(C)nn2CCC#N` had a z-score of -0.234.

The molecule `O=C(CSc1nc2ccccc2c(=O)n1-c1ccc(F)cc1F)Nc1ccc2c(c1)CCC2` registered a z-score of 0.245.

In the case of `CC(=O)NCCOc1c(C)cc(S(N)(=O)=O)cc1C`, the z-score was -0.603.

For the molecule `Oc1[nH]c2ccc(Br)cc2c1N=Nc1ccc(C(F)(F)F)cn1`, the z-score stood at 0.607.

Molecule `CCOC(=O)C(NC(C)=O)(Nc1cccc(F)c1)C(F)(F)F` (stereo not given) displayed a z-score of 0.213.

For the molecule `CN(C)c1ccc(N/C=C/C(=O)c2ccc(F)cc2)cc1`, the z-score is -0.276.

`CC(C)(Oc1ccc(Cl)cc1)C(=O)NCc1ccco1` showed a z-score of -0.211.

In the case of `Cc1nc(N2CCN(c3ccccc3)CC2)nc2c1C(=O)CC(C)C2` (stereo not given), the z-score is -0.907.

`CC(=O)c1c(C)[nH]c(C(=O)OC(C)C(=O)Nc2cc(S(=O)(=O)N3CCCCC3)ccc2Cl)c1C` (stereo not given) registered a z-score of -0.199.

In turn, `CC(C)(C)S(=O)(=O)c1ccsc1C(=O)O` showed a z-score of -0.136.

Molecule `CC(C)(C)N1CC(c2nc3ccccc3n2Cc2ccccc2)CC1=O` (stereo not given) registered a z-score of -0.396.

Molecule `Cn1cccc1/C=N/n1c(-c2ccc(C(C)(C)C)cc2)n[nH]c1=S` came in with a z-score of 1.58.

With `CCN(CC)S(=O)(=O)c1cc(-c2nnc(-c3ccc(Br)cc3)o2)ccc1Cl`, the z-score is -0.538.

`Cc1cccc(C)c1Nc1nnc(SCC(=O)Nc2cc(S(=O)(=O)N3CCCCC3)ccc2Cl)s1`: the z-score is -0.142.

Take `Cc1ccc(-c2csc3ncnc(SCC(=O)Nc4nnc(C)s4)c23)cc1`: the z-score is 0.0561.

`Cc1ccc2nc(Nc3nc(CSc4nnnn4-c4ccccc4)cc(=O)[nH]3)nc(C)c2c1` displayed a z-score of -0.118.

As for `NC(N)=N/N=C/c1ccc(OCc2ccc(Cl)cc2)cc1`, the z-score worked out at 0.337.

`COCc1nnc(NS(=O)(=O)c2ccc(C)cc2)s1` displayed a z-score of 0.241.

Regarding `CN(C)CCCNCCCNC(=O)c1ccncc1`, the z-score is -0.0691.

On to `COc1ccc(Cc2noc(COc3ccc(Cl)cc3)n2)cc1`, for which the z-score is -0.523.

`CCc1cccc(Nc2c([N+](=O)[O-])cc(C(=O)N3CC(=O)Nc4ccccc43)cc2[N+](=O)[O-])c1` came in with a z-score of -1.1.

Take `Cc1cc(=O)oc2cc(OCc3nnc(-c4ccccc4Br)o3)ccc12`: the z-score turned out to be 0.455.

`CCOc1ccc(Br)cc1S(=O)(=O)Nc1cccc(S(=O)(=O)N(CC)CC)c1` gave a z-score of -0.403.

Take `N#CCC(=N)N1CCN(c2ccc(Cl)cc2)CC1`: the z-score came out at 0.16.

For `Oc1ccc(/C=N/Nc2ncnc3c2ncn3Cc2ccccc2)cc1O`, the z-score was -0.31.

Turning to `O=C(COC(=O)c1ccc[nH]c1=O)NCC1CCCO1` (stereo not given), the z-score is 1.3.

Molecule `COCC(C)n1c(C)cc(C(=O)COC(=O)c2n[nH]c3ccccc23)c1C` (stereo not given) gave a z-score of -0.0689.

`C=CCNc1cnn(-c2ccc(C)cc2)c(=O)c1Cl` displayed a z-score of -0.126.

On to `CN(Cc1ccccc1)C(=O)COc1ccccc1`, for which the z-score was 0.95.

Turning to `CC1CCC2(CC1)Nc1ccccc1C(=O)N2c1ccccc1` (stereo not given), the z-score was -0.807.

Consider `O=C1C(C=Nc2ccccc2O)=C(O)c2ccccc21`, for which the z-score is -0.401.

`O=C(N/N=C\C=C\c1ccc2c(c1)OCO2)c1cccnc1`: the z-score is -0.156.

As for `CCCCNC(=S)NNC(=O)c1nn(C)cc1Cl`, the z-score stood at 0.00599.

For `Cc1sc2nc(CN(Cc3cccs3)C(=O)C3CC3)[nH]c(=O)c2c1C`, the z-score is 0.3.

Turning to `O=C(CSc1nnc(CNC(=O)c2c(F)cccc2Cl)o1)c1ccccc1`, the z-score turned out to be 0.121.

The molecule `N#Cc1ccc(C(=O)NCC(c2ccco2)N2CCCCC2)cc1` (stereo not given) returned a z-score of 0.912.

Molecule `CSCC[C@H](NC(=O)OC(C)(C)C)c1nnc(SCC(N)=O)o1` gave a z-score of 0.407.

The molecule `Cc1ccc(C)c(NC(=O)Cn2nnc(C(=O)NCc3cccs3)c2N)c1` yielded a z-score of -0.227.

`Cc1cnc(C(=O)OCC(=O)Nc2cc(Cl)cc(Cl)c2)cn1` displayed a z-score of -0.619.

For `O=C(OCn1nnc2ccccc2c1=O)c1ccco1`, the z-score is 0.452.

`Cn1c(C(=O)OC(C(=O)NCc2ccco2)c2ccncc2)cc2sccc21` (stereo not given) showed a z-score of -0.173.

As for `CCN1CCN(S(=O)(=O)c2cccc3nsnc23)CC1`, the z-score was 0.524.

For `Cc1ccc(C(=O)N2CCN(C(=O)c3ccc(C)c(C)c3)C(C)C2)cc1C` (stereo not given), the z-score was -0.738.

As to `CCN(CC)CCCNC1CCS(=O)(=O)C1` (stereo not given), the z-score is 0.0097.

The molecule `Nc1nc(COc2ccccc2)cs1` showed a z-score of -0.178.

As for `CCOC(=O)COc1cc(Br)c(/C=N/Nc2ccccc2)cc1OC`, the z-score is -0.0959.

For the molecule `COc1ccc(OCCCn2cc(/C=C3/C(=N)N4C=C(C)SC4=NC3=O)c3ccccc32)cc1`, the z-score was 0.177.

Regarding `Oc1c(C=C2N=c3ccccc3=N2)sc(=S)n1C1CCCCC1`, the z-score was 0.0198 and -0.0716.

In the case of `Cc1ccc(-n2c(O)c(C=NCc3ccccn3)c3ccccc3c2=O)cc1C`, the z-score was -1.08.

The molecule `O=C(CN1CCN(c2ccccc2)CC1)Nc1cccc(C(F)(F)F)c1` displayed a z-score of 0.756.

`O=C(Cn1c(=O)oc2cc(S(=O)(=O)N3CCc4ccccc43)ccc21)N1CCCCC1`: the z-score was -0.0758.

Take `CCN(CC)CCN1C(=O)C(O)=C(C(=O)c2cc3ccccc3o2)C1c1cccnc1` (stereo not given): the z-score was -0.315.

Molecule `CCOC(=O)Cn1ncc2c(=O)oc3ccccc3c21` had a z-score of -0.414.

For `O=C(CC(c1ccco1)C1CCCCC1=O)c1ccccc1` (stereo not given), the z-score is -0.656.

Regarding `Cc1ccc(N2C(=O)c3ccc(C(=O)Nc4cccnc4)cc3C2=O)c(C)c1`, the z-score is -0.14.

For the molecule `COc1ccc(CNC(=O)CCc2c(C)nc3ncnn3c2C)cc1`, the z-score stood at 0.418.

In the case of `N#Cc1c(-c2ccco2)nc(SCc2ccc(F)cc2)[nH]c1=O`, the z-score was active: -3.79.

Molecule `CCc1nnc(NC(=O)C2CCCN2S(=O)(=O)c2ccc(F)cc2)s1` (stereo not given) returned a z-score of 0.145.

Turning to `O=C(CCc1nc(-c2ccccc2)c(-c2ccccc2)o1)OCc1ccc(Cl)cc1`, the z-score is -1.75.

The molecule `COCCCn1ccc(O)c(Cc2ccc(F)cc2)c1=O` gave a z-score of -0.0433.

`O=C(CSc1nc2c(c(=O)n1-c1ccc(Br)cc1)SCC2)NCc1ccco1` had a z-score of -0.951.

(Values after PubChem BioAssay AID488969 (Vanderbilt High Throughput Screening Facility, 2010).)
